# Tests used:
# [1] = target: T1, Scaffold protein ILK (Homo sapiens) (UniProt Q13418); experiment: Inhibition of ILK Protein Kinase Domain (ISMADVKFSFQCPGR) in human PBMC at 0.1 uM
# T1 sequence (whole entry): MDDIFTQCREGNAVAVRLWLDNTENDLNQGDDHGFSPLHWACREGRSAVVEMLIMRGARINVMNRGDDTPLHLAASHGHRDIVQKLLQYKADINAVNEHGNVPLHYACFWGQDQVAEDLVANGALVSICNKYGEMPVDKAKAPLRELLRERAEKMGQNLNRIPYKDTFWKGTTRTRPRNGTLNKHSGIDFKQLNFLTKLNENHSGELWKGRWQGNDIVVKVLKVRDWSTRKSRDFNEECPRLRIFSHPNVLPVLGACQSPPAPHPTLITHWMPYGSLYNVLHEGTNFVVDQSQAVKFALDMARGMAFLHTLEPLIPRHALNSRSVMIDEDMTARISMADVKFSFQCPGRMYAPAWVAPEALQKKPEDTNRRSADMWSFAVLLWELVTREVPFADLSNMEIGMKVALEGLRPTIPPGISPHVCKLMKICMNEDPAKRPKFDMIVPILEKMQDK
# [2] = target: Serine/threonine-protein kinase WNK2 (Homo sapiens) (UniProt Q9Y3S1); experiment: Inhibition of Wnk2 conserved Lys2 (DLKCDNIFITGPTGSVK) in human PBMC at 1 uM
# [3] = target: RAC-gamma serine/threonine-protein kinase (Homo sapiens) (UniProt Q9Y243); experiment: Inhibition of AKT3 labeling at conserved Lys1 (IGHYILGDTLGVGTFGKVK) in human PBMC at 0.1 uM
# [4] = target: Ribosomal protein S6 kinase alpha-3 (Homo sapiens) (UniProt P51812); experiment: Inhibition of RSK2 domain2 conserved Lys2 (DLKPSNILYVDESGNPESIR) in human PBMC at 1 uM
# [5] = target: Tyrosine-protein kinase Lyn (Homo sapiens) (UniProt P07948); experiment: Inhibition of LYN activation Loop (EGAKFPIKWTAPEAINFGCFTIK) in human PBMC at 1 uM
# [6] = target: Kinase suppressor of Ras 1 (Homo sapiens) (UniProt Q8IVT5); experiment: Inhibition of KSR1 activation Loop (SKNVFYDNGKVVITDFGLFGISGVVR) in human PBMC at 0.1 uM
# Chain of UniProt Q8IVT5 (Q8IVT5 whole entry): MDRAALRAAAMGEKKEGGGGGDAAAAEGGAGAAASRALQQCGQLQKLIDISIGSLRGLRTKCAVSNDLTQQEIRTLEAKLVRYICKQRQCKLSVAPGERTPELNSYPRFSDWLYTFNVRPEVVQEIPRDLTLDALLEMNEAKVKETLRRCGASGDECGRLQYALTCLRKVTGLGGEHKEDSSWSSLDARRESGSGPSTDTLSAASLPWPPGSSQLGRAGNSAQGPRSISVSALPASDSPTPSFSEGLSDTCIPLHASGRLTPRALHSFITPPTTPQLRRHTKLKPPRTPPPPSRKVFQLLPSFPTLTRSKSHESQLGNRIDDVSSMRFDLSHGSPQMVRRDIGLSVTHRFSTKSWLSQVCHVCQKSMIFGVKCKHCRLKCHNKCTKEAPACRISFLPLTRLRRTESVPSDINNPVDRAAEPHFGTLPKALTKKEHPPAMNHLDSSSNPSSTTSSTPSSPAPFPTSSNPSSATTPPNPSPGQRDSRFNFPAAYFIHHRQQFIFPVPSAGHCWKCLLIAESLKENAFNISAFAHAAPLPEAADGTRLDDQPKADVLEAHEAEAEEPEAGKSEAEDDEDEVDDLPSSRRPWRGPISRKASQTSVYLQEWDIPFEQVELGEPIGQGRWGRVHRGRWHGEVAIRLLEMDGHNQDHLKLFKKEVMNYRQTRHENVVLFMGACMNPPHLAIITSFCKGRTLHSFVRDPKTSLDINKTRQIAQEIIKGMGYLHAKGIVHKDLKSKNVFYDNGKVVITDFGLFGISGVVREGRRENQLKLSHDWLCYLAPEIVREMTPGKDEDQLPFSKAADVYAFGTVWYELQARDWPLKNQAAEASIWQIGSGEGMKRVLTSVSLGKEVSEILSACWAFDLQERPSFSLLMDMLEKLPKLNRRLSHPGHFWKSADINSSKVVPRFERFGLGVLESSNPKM
# [7] = target: Cyclin-dependent kinase 8 (Homo sapiens) (UniProt P49336); experiment: Inhibition of CDK8 labeling at conserved Lys2 (DLKPANILVMGEGPER) in human PBMC at 1 uM
# Chain of UniProt P49336 (P49336 whole entry): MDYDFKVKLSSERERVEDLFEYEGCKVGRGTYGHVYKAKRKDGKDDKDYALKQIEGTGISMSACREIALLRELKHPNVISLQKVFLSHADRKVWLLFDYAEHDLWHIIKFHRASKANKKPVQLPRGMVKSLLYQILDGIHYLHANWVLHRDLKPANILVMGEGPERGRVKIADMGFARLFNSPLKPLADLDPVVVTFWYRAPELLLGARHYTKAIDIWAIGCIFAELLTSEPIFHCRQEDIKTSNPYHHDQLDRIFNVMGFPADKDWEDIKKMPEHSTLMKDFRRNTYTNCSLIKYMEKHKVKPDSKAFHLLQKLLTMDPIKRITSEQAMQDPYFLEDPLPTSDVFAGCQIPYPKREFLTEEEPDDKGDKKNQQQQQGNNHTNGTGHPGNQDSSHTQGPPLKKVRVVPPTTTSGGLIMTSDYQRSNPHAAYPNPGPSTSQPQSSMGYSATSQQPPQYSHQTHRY
# [8] = target: Serine/threonine-protein kinase Nek9 (Homo sapiens) (UniProt Q8TD19); experiment: Inhibition of NEK9 conserved Lys1 (RTEDDSLVVWKEVDLTR) in human PBMC at 0.1 uM
# [9] = target: Serine/threonine-protein kinase ULK1 (Homo sapiens) (UniProt O75385); experiment: Inhibition of ULK1 conserved Lys2 (DLKPQNILLSNPAGR) in human PBMC at 0.1 uM
# Chain of UniProt O75385 (O75385 whole entry): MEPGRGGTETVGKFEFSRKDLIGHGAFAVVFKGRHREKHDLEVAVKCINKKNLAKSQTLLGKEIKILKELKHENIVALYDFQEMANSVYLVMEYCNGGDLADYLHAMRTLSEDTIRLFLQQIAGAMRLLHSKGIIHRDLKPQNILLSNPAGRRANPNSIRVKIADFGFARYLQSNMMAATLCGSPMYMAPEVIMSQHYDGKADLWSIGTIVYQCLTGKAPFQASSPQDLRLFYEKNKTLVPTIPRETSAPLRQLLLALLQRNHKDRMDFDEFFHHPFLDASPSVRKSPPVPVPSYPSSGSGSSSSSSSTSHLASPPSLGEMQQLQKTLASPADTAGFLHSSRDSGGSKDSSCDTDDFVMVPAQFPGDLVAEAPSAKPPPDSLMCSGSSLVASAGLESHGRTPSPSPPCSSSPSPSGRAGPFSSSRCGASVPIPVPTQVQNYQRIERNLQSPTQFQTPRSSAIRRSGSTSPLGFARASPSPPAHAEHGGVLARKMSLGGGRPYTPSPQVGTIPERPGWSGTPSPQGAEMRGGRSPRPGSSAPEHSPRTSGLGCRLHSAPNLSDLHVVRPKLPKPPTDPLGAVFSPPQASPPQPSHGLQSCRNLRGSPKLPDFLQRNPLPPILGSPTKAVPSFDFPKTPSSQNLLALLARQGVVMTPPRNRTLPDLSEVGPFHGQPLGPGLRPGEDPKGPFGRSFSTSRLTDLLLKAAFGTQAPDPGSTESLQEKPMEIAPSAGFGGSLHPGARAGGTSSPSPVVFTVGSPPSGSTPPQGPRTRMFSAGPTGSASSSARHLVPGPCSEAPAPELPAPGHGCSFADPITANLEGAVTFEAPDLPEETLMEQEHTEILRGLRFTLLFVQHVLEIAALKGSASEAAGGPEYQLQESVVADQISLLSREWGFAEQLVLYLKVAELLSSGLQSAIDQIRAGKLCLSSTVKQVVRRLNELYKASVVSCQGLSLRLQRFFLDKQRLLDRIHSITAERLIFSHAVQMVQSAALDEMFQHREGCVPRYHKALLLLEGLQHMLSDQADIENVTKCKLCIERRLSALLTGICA
# [10] = target: Receptor-interacting serine/threonine-protein kinase 3 (Homo sapiens) (UniProt Q9Y572); experiment: Inhibition of RIPK3 conserved Lys2 (DLKPSNVLLDPELHVK) in human PBMC at 0.1 uM
# [11] = target: Serine/threonine-protein kinase 32C (Homo sapiens) (UniProt Q86UX6); experiment: Inhibition of YANK3 conserved Lys2 (DVKPDNILLDER) in human PBMC at 0.1 uM
# Chain of UniProt Q86UX6 (Q86UX6 whole entry): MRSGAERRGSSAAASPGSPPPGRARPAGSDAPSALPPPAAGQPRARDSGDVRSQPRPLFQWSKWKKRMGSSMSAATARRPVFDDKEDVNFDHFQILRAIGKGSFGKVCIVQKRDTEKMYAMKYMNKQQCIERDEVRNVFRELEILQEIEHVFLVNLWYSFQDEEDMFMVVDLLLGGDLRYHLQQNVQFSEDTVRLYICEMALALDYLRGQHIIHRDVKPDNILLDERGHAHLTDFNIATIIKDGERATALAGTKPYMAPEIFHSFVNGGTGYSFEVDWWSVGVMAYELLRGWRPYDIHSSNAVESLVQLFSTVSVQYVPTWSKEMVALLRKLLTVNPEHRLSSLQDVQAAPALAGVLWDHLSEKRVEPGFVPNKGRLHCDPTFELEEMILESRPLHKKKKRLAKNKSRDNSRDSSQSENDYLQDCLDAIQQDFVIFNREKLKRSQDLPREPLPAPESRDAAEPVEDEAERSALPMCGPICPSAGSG
# [12] = target: Mitogen-activated protein kinase 8 (Homo sapiens) (UniProt P45983); experiment: Inhibition of JNK1 conserved Lys2 (DLKPSNIVVK) in human PBMC at 1 uM
# Chain of UniProt P45983 (P45983 whole entry): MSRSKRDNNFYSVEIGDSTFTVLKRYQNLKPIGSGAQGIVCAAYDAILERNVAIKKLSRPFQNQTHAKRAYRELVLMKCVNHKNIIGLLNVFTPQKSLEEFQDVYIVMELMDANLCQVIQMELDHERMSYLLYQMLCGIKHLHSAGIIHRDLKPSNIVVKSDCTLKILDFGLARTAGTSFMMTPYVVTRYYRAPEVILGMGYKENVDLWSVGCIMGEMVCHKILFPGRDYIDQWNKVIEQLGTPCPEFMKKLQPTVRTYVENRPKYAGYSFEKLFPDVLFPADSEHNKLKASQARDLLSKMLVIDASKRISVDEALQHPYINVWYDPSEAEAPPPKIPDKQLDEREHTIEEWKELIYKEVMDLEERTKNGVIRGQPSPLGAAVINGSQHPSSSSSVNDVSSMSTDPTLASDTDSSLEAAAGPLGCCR
# [13] = target: Cyclin-dependent kinase 11B (Homo sapiens) (UniProt P21127); experiment: Inhibition of CDK11 labeling at conserved Lys2 (DLKPANILVMGEGPER) in human PBMC at 0.1 uM
# [14] = target: MAP kinase-activated protein kinase 3 (Homo sapiens) (UniProt Q16644); experiment: Inhibition of MAPKAPK3 ATP binding site (QVLGLGVNGKVLECFHR) in human PBMC at 0.1 uM
# [15] = target: Serine/threonine-protein kinase Sgk1 (Homo sapiens) (UniProt O00141); experiment: Inhibition of SGK conserved Lys1 (FYAVKVLQK) in human PBMC at 1 uM
# [16] = target: Mitogen-activated protein kinase kinase kinase kinase 4 (Homo sapiens) (UniProt O95819); experiment: Inhibition of ZC1/HGK conserved Lys2 (DIKGQNVLLTENAEVK) in human PBMC at 1 uM
# [17] = target: Serine/threonine-protein kinase LATS2 (Homo sapiens) (UniProt Q9NRM7); experiment: Inhibition of LATS2 conserved Lys2 (DIKPDNILIDLDGHIK) in human PBMC at 1 uM
# [18] = target: Cyclin-dependent kinase 8 (Homo sapiens) (UniProt P49336); experiment: Inhibition of CDK8 labeling at conserved Lys2 (DLKPANILVMGEGPER) in human PBMC at 0.1 uM
# [19] = target: Serine/threonine-protein kinase 26 (Homo sapiens) (UniProt Q9P289); experiment: Inhibition of MST4 conserved Lys2 (DIKAANVLLSEQGDVK) in human PBMC at 1 uM
# [20] = target: Serine/threonine-protein kinase MARK2 (Homo sapiens) (UniProt Q7KZI7); experiment: Inhibition of MARK2 conserved Lys2 (DLKAENLLLDADMNIK) in human PBMC at 1 uM
# Chain of UniProt Q7KZI7 (Q7KZI7 whole entry, the tested form may be a part): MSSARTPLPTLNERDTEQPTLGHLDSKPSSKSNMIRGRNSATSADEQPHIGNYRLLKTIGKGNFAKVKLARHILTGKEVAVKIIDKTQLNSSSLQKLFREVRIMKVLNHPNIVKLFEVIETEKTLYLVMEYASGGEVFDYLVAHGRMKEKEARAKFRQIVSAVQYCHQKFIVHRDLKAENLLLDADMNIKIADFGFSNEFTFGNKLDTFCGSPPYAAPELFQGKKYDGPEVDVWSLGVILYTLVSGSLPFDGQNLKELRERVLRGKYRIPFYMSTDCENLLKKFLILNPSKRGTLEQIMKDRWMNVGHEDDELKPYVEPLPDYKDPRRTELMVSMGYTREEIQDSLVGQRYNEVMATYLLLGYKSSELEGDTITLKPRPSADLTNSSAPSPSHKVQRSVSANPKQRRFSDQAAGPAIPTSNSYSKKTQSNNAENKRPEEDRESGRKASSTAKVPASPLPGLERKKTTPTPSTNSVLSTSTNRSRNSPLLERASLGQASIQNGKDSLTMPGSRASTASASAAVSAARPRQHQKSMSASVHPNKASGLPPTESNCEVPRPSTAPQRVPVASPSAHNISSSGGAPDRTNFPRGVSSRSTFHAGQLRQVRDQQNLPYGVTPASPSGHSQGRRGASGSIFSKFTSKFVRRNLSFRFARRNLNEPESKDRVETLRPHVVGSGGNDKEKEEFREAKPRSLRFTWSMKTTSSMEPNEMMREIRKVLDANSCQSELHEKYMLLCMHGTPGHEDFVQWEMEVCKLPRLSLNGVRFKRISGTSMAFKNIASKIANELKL
# [21] = target: Ribosomal protein S6 kinase delta-1 (Homo sapiens) (UniProt Q96S38); experiment: Inhibition of RSKL1 domain1 Protein Kinase Domain (VLGVIDKVLLVMDTR) in human PBMC at 0.1 uM
# [22] = target: eIF-2-alpha kinase GCN2 (Homo sapiens) (UniProt Q9P2K8); experiment: Inhibition of GCN2 conserved Lys2 (DLKPVNIFLDSDDHVK) in human PBMC at 0.1 uM
# [23] = target: Ribosomal protein S6 kinase alpha-2 (Homo sapiens) (UniProt Q15349); experiment: Inhibition of RSK3 domain1 conserved Lys2 (DLKPENILLDEEGHIKITDFGLSK) in human PBMC at 1 uM
# Chain of UniProt Q15349 (Q15349 whole entry, the tested form may be a part): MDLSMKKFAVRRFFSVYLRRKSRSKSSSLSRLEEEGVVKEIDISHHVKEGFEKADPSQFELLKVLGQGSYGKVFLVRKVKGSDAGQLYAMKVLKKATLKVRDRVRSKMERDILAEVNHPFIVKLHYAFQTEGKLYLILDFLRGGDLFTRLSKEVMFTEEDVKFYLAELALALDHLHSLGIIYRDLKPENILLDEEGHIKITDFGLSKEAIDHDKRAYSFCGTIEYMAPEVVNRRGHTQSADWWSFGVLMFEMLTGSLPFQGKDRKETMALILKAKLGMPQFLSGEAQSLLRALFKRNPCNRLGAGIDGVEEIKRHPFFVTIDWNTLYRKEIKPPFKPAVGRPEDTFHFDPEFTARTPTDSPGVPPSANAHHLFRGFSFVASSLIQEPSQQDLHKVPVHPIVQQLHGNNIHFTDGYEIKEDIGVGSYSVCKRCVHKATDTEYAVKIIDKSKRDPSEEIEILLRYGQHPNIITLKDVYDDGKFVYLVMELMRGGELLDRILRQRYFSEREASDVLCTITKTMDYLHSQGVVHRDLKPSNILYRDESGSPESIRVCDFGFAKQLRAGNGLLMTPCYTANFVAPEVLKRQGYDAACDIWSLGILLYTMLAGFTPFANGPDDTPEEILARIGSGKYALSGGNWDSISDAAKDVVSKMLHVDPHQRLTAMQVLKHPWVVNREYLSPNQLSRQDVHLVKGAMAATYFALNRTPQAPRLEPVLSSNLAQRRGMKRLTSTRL
# [24] = target: Kinase suppressor of Ras 1 (Homo sapiens) (UniProt Q8IVT5); experiment: Inhibition of KSR1 activation Loop (SKNVFYDNGKVVITDFGLFGISGVVR) in human PBMC at 1 uM
# [25] = target: Serine/threonine-protein kinase SMG1 (Homo sapiens) (UniProt Q96Q15); experiment: Inhibition of SMG1 ATP binding site (DTVTIHSVGGTITILPTKTKPK) in human PBMC at 0.1 uM
# [26] = target: T1, Scaffold protein ILK (Homo sapiens); experiment: Inhibition of ILK Protein Kinase Domain (ISMADVKFSFQCPGR) in human PBMC at 1 uM
# [27] = target: T1, Scaffold protein ILK (Homo sapiens); experiment: Inhibition of ILK conserved Lys1 (WQGNDIVVKVLK) in human PBMC at 0.1 uM
# [28] = target: Tyrosine-protein kinase Lck (Homo sapiens) (UniProt P06239); experiment: Inhibition of LCK activation Loop (EGAKFPIKWTAPEAINYGTFTIK) in human PBMC at 1 uM
smiles,measurement,setting,value
CC(C)n1cc(-c2cc(-c3ccc(CN4CCOCC4)cc3)cnc2N)nn1,inhibition,[1],2.5%
same,inhibition,[2],2.2%
same,inhibition,[3],17.1%
same,inhibition,[4],-6.6%
same,inhibition,[5],5%
same,inhibition,[6],-2.7%
same,inhibition,[7],1.5%
same,inhibition,[8],10.3%
same,inhibition,[9],17.2%
same,inhibition,[10],-4.9%
same,inhibition,[11],9.8%
same,inhibition,[12],23.9%
same,inhibition,[13],5.7%
same,inhibition,[14],9.4%
same,inhibition,[15],-2.2%
same,inhibition,[16],29.1%
same,inhibition,[17],-2.3%
same,inhibition,[18],5.7%
same,inhibition,[19],9.9%
same,inhibition,[20],28.8%
same,inhibition,[21],29.2%
same,inhibition,[22],-3.3%
same,inhibition,[23],20.3%
same,inhibition,[24],5.7%
same,inhibition,[25],-2.4%
same,inhibition,[26],7.7%
same,inhibition,[27],7.6%
same,inhibition,[28],-1.6%
